# According to PubChem BioAssay AID686971 (National Center for Advancing Translational Sciences (NCATS), 2013):
# Screen size: about 360,000 compounds; about 7,500 (2.1%) were called active. The inconclusive results got no clear call from the source; some entries with a clear call stand among them for comparison. Calls follow the shape of the dose curve; as a rule, active = well fitted cell-killing curve with a large enough effect; inconclusive = small, poorly fitted or top-dose-only effect, or effect the other way, or another doubt; inactive = no such curve, though single readings can be large or run the other way. No potency is given beside an inconclusive call; the fits are too rough.
# Test: qHTS for induction of synthetic lethality in tumor cells producing 2HG: qHTS for the HT-1080-IDH1KD cell line;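 as to activity, negative = toxicity: 0% = DMSO wells and -100% = cell-free medium wells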
# Details: HT-1080 IDH1 knockdown viability, ATP luminescence, 48 h; activity, negative = toxicity: at 46.1 µM (top of the series) unless noted
# Method in brief: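 CellTiter-Glo luminescence after 48 h compound exposure at 37 degrees C of IDH1-knockdown HT-1080 cells in 5% FBS RPMI. %Activity scaled between DMSO wells and cell-free media wells, with curves fitted and assigned curve classes.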
# Potency is read from the fitted curve at half-maximal effect; tags tell the direction and shape of the fitted curve.
Structure (SMILES),Potency,"activity, negative = toxicity"
C=COC(=O)NC1CCc2cc(OC)c(OC)c(OC)c2-c2ccc(SC)c(=O)cc21 (centres undefined),"inconclusive [cytotoxic, full curve]",–
CC(=O)N(C1CC(C)C(C#N)(C#N)C1(C#N)C#N)N(C)C (centres undefined),"inconclusive [cytotoxic, single point]",–
CN(C)CCN(C)Cc1c2ccccc2c(CN(C)CCN(C)C)c2ccccc12,active: 20.6 µM,–
Cc1ccc([N+](=O)[O-])cc1NC(=S)NC(=O)CC(C)(C)C,"inconclusive [cytotoxic, single point]",–
NS(=O)(=O)c1ccc(N2N=C(c3ccccc3)CC2c2ccccc2Cl)cc1 (centres undefined),"inconclusive [cytotoxic, single point]",–
CCOc1cccc2sc(N(CCCN(C)C)C(=O)c3ccc(C(=O)c4ccccc4)cc3)nc12,"inconclusive [cytotoxic, single point]",–
Cc1[nH]c2ccccc2c1/C=C(\C#N)C(=O)NC(C)c1ccccc1 (centres undefined),"inconclusive [cytotoxic, single point]",–
O=C1N(Cc2cccnc2)C[C@@H]2C[C@@H](c3ccccc3C#Cc3ccccc3)N3CCC[C@@]123,"inconclusive [cytotoxic, partial curve]",–
O=C(NCCc1cccs1)C(c1ccccc1)c1ccccc1,–,inactive: 10.9%
COc1ccccc1NS(=O)(=O)c1cc(NC(=O)c2ccc(Cl)nc2)ccc1Cl,"inconclusive [cytotoxic, single point]",–
O=C(O)/C=C/C(=O)NNc1ccc([N+](=O)[O-])cc1,"inconclusive [cytotoxic, partial curve]",–
Cc1scc(C(=O)NCc2ccco2)c1-c1ccccc1,"inconclusive [cytotoxic, single point]",–
O=C(NCc1ccc(Cl)cc1)C(=O)NCC1OCCN1S(=O)(=O)c1cc(F)ccc1F (centres undefined),–,inactive: 7.84%
Cc1cc(N2CCN(c3nc(-c4ccc([N+](=O)[O-])cc4)cs3)CC2)c2ccccc2n1,"inconclusive [cytotoxic, single point]",–
CCCCCCCn1c(=O)c(C(=O)OC)c(N)c2ccccc21,"inconclusive [cytotoxic, partial curve]",–
CC(=O)C1=CCC(c2ccccc2F)N(S(=O)(=O)c2ccc(C)cc2)C1 (centres undefined),"inconclusive [cytotoxic, single point]",–
CCn1c(SCC(=O)Nc2nc(-c3ccc(C)cc3)cs2)nnc1-c1ccccc1O,"inconclusive [cytotoxic, partial curve]",–
CN1CCN(C2=Cc3ccccc3Sc3cc(F)c(F)cc32)CC1,"inconclusive [cytotoxic, single point]",–
C/C(Cn1nnc([N+](=O)[O-])n1)=N\NC(=O)c1cccc(Cl)c1,"inconclusive [cytotoxic, single point]",–
O=C(/C=C/c1ccc2c(c1)OCO2)NCCSCc1ccc(Cl)cc1Cl,"inconclusive [cytotoxic, single point]",–
Cc1nnnn1/C(=C\c1ccccc1)C(=O)OCC(=O)N1CC2(C)CC1CC(C)(C)C2 (centres undefined),active: 14.6 µM,–
O=C(CCc1ccccc1)NNC(=O)c1ccccn1,"inconclusive [cytotoxic, single point]",–
O=C(CCN1C(=O)c2ccccc2C1=O)Nc1ccc(S(=O)(=O)NC2=NCCCCC2)cc1,"inconclusive [rising, partial curve, poor fit]",–

Structure (SMILES),Potency,"activity, negative = toxicity"
COc1ccccc1NC(=S)NC(NC(=O)C(C)C)C(Cl)(Cl)Cl (centres undefined),"inconclusive [cytotoxic, partial curve]",–
CCc1nnc(NC(=O)CSc2nc3ccccc3c(=O)n2CCCOC)s1,"inconclusive [cytotoxic, single point]",–
Cc1ccccc1Cn1c(C)c(C(=O)NCc2cccc(C(F)(F)F)c2)sc1=O,"inconclusive [cytotoxic, single point]",–
O=C(/C=C/c1ccnc2ccccc12)c1cccs1,active: 18.4 µM,–
Cc1cccc(C)c1-n1nnnc1C(c1ccnc2ccccc12)N1CCCN(C(=O)OC(C)(C)C)CC1 (centres undefined),"inconclusive [cytotoxic, single point]",–
Cc1cccc(/C=C/C(=O)c2ccc([N+](=O)[O-])o2)c1,"inconclusive [cytotoxic, single point]",–
COc1cc(C(=O)Nc2ccc(S(=O)(=O)N3CCc4ccccc43)cc2)cc(OC)c1OC,–,inactive: -17.7%
COc1ccccc1NS(=O)(=O)c1ccc(C)c(C(=O)NCC2(N(C)C)CCCCC2)c1,–,inactive: -11.3%
COc1cccc(-c2cc3nc(-c4ccccc4)cc(N4CCCC(O)C4)n3n2)c1 (centres undefined),"inconclusive [cytotoxic, single point]",–
Cc1cc(C)cc(NC(=O)c2cccc(NC(=O)c3ccco3)c2)c1,–,inactive: -0.0089%
Cc1nc(NCCc2ccccc2)c2oc3ccccc3c2n1,"inconclusive [cytotoxic, single point]",–
COc1ccc(S(=O)(=O)NC(=O)C2(C)CCN2C(=O)CCC2CCCC2)cc1OC (centres undefined),"inconclusive [rising, single point]",–
CCc1ccc(CCC(=O)Nc2ccc(OC)cc2)o1,"inconclusive [cytotoxic, single point]",–
FC(F)Oc1ccc(NC(=S)NCc2ccccc2)cc1Cl,"inconclusive [cytotoxic, single point]",–
CCCCc1nc(NCCO)c(C#N)c2c1CCCC2,"inconclusive [cytotoxic, partial curve]",–
COc1ccc(C(=O)CC(=O)C(=O)Nc2cc(C)ccc2C)cc1,"inconclusive [cytotoxic, single point]",–
Cc1cc(C)c2nc(NC(=O)CN3C(=O)NC4(CCCC4)C3=O)sc2c1,"inconclusive [cytotoxic, single point]",–
C=CCn1c(SCC(=O)Nc2c(C)n(C)n(-c3ccccc3)c2=O)nc2sc(C)c(C)c2c1=O,–,inactive: -3.91%
O=C(CSc1nc2c(c(=O)n1-c1ccccc1)SCC2)N1CCN(c2ccccc2)CC1,–,inactive: -0.217%
COc1ccc(NC(=O)c2nnn(CC(=O)Nc3ccc4c(c3)OCO4)c2N)cc1OC,"inconclusive [cytotoxic, single point]",–
CCOc1cccc(/C=N/NC(=O)c2cc(-c3cccn3C)n[nH]2)c1O,"inconclusive [cytotoxic, full curve]",–
C[C@@H]1CN([C@@H](C)CO)C(=O)c2cc(/C=C/c3ccccc3)cnc2O[C@@H]1CN(C)S(=O)(=O)c1ccc(F)cc1,–,inactive: 6.59%
COc1cc(-c2nn3c(C4CCCCC4)nnc3s2)cc(OC)c1OC,–,inactive: 1.27%

Structure (SMILES),Potency,"activity, negative = toxicity"
COc1ccccc1N1CCN(C(=O)C(Sc2ccccc2)c2ccccc2)CC1 (centres undefined),"inconclusive [cytotoxic, single point]",–
O=C(OCc1ccccc1)C1=[N+]([O-])OC(C(=O)OCc2ccccc2)C1c1c[nH]c2ccccc12 (centres undefined),"inconclusive [cytotoxic, single point]",–
CC1(C)N=C(N)N=C(N)N1c1ccc(CCCCc2ccccc2)cc1,active: 0.731 µM,–
CCCCNc1nc2ccccc2n1CC(=O)N1CCc2ccccc2C1,"inconclusive [cytotoxic, single point]",–
CCC(=O)N(Cc1ccco1)c1nc(C(=O)Nc2ccc(Cl)cc2)c(C)s1,–,inactive: -23.1%
COC(=O)c1ccc(/C=N/NC(=O)c2ccc3nc[nH]c3c2)cc1,–,inactive: 0.675%
COc1ccc(-c2nc3ccccc3s2)cc1NC(C)=O,–,inactive: 0.0903%
COc1ccc(-c2nc3c4ccccc4ccn3c2Cc2ccccc2C(F)(F)F)cc1OC,"inconclusive [cytotoxic, single point]",–
CCN(CC)CCN(C(=O)CCS(=O)(=O)c1ccccc1)c1nc2cc(C)cc(C)c2s1,"inconclusive [cytotoxic, single point]",–
COC(=O)c1ccc(N2CCN(C)CC2)c(NC(=O)COc2ccccc2Cl)c1,–,inactive: -3.58%
N#CC1=C(N)Oc2n[nH]c(-c3ccc(F)cc3)c2C1c1ccncc1 (centres undefined),–,inactive: -11.6%
NS(=O)(=O)c1ccc(Nc2nc(-c3ccc(O)cc3)cs2)cc1,"inconclusive [cytotoxic, single point]",–
COc1cc(C(=O)OCC(=O)Nc2ccc(C)cc2)cc(OC)c1OC,–,inactive: -15%
Cc1cc(C(=O)Nc2sc3c(c2C#N)CCCC3)no1,"inconclusive [cytotoxic, single point]",–
CCCCCc1nnc(NC(=O)Cc2cccs2)s1,–,inactive: -0.599%
CCc1ccc(NC(=O)C2CCN(S(=O)(=O)c3ccc4c(c3)NC(=O)C(C)S4)CC2)cc1 (centres undefined),–,inactive: -25.6%
CCOC(=O)N1CCN(C(=O)C(CC)n2nc(C)c3sc4ccccc4c3c2=O)CC1 (centres undefined),"inconclusive [cytotoxic, single point]",–
OCCN1CCN(Cc2cc(Cl)c3cccnc3c2O)CC1,active: 3.16 µM,–
CCCc1[nH]nc2c1C(c1cccc(OC(=O)c3ccco3)c1)C(C#N)=C(N)O2 (centres undefined),"inconclusive [rising, single point]",–
COC(=O)c1cccc(S(=O)(=O)N2CCCCC2)c1,–,inactive: -12.3%
CC(=O)Nc1ccc(S(=O)(=O)N2CCC3(CC2)OCCO3)cc1,–,inactive: 1.4%
CCOC(=O)[C@]12CCCC=C1N(Cc1ccccc1)C(=O)[C@H](CC(=O)NCc1cccs1)C2,–,inactive: -8.12%
Cc1nn(C(C)C(=O)NCCN2CCCC2)c(=O)c2c1sc1ccccc12 (centres undefined),–,inactive: 17.4%
